Measurements reported in PMC4336329 (PLoS ONE, 2015).
Out of some 310,000 compounds screened, about 14,000 (4.5%) showed an effect of 50% or more. Effects have a minus sign here. The list shows a part of the results.

Target: human ether-à-go-go-related gene (hERG) potassium channel (human, UniProt Q12809)
Assay: primary screen, population patch clamp on CHO cells stably expressing hERG
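Further: peak tail current of the secondary pulse compared with the same well before compound.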

Chain of human ether-à-go-go-related gene (hERG) potassium channel (Q12809 whole entry, looked up): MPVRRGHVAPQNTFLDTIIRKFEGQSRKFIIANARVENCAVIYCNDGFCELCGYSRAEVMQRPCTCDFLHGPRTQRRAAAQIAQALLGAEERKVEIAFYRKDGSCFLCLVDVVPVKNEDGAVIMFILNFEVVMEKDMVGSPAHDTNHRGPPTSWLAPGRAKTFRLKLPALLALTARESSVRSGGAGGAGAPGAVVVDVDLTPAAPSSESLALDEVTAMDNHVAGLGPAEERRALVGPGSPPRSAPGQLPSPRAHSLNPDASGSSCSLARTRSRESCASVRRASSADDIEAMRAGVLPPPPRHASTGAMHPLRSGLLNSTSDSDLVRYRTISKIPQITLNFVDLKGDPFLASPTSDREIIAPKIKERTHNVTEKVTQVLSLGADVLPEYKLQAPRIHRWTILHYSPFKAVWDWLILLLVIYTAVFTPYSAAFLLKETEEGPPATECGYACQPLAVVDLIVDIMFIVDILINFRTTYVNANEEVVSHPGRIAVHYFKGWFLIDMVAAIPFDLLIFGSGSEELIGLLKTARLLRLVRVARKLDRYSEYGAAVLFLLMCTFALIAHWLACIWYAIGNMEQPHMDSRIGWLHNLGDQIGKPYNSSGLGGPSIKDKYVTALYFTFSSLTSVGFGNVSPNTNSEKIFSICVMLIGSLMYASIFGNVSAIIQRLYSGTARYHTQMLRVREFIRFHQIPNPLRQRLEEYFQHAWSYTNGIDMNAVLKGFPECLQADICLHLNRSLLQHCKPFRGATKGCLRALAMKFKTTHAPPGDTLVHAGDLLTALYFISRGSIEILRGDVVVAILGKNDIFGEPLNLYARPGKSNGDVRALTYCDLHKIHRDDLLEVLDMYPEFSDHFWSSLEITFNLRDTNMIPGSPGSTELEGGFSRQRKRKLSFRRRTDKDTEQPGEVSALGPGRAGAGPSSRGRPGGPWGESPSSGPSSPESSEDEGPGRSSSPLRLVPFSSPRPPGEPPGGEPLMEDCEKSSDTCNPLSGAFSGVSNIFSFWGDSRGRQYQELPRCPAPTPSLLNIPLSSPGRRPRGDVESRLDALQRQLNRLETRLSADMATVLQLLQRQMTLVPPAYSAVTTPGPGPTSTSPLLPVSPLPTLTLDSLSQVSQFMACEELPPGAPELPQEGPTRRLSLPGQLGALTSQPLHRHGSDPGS

Row | SMILES | hERG current change (%, negative = inhibition) at 10uM [%]
1 | Cn1c2ccccc2c2n[nH]c(=S)nc21 | 11.5
2 | Cc1ccccc1CN1CCC(C(=O)Nc2ccc(Oc3cccnc3)cc2)CC1 | -48.6
3 | O=C(Nc1ccccn1)[C@@H]1CCC(=O)N1C(=O)OCc1ccccc1 | 4.77
4 | CC(N)C12CC3CC(CC(C3)C1)C2.Cl (stereo not drawn) | 14.1
5 | O=C(Nc1ccc2c(c1)OCO2)c1cc(-c2ccncc2)nc2ccccc12 | -3.22
6 | O=C(/C=C/c1ccccc1)OCC(=O)c1ccc[nH]1 | 9.74
7 | O=C(NNC1CC(=O)N(c2cccc(Cl)c2)C1=O)c1cccs1 (stereo not drawn) | 3.18
8 | CCOC(=O)c1ccc(NC(=S)N2CCSC2c2c(F)cc(F)cc2F)cc1 (stereo not drawn) | 2.26
9 | CCOC(=O)C1(Cc2cccc(OC)c2)CCN(Cc2cnc(SC)nc2)CC1 | -27
10 | O=C(CCn1nc(-c2ccccc2)c2ccccc2c1=O)Nc1cccnc1 | 17.2
11 | CN1CCC(OC(=O)COc2ccc(C(C)(C)C)cc2)CC1.Cl | -28.7
12 | Cc1ccc(F)cc1NC(=O)N1CCCN(C(=O)OC(C)(C)C)CC1 | 13.4
13 | Cc1ccc(S(=O)(=O)NC2CCC(C(=O)O)CC2)cc1 (stereo not drawn) | -1.64
14 | CCn1cc(S(=O)(=O)c2ccc(OC)cc2)c(=O)c2cc(OC)ccc21 | 8.19
15 | Cc1ccc(C(=O)N2CCCCC2)cc1S(=O)(=O)N1CCCC1 | 5.55
16 | O=C(NC(c1ccc(Cl)cc1)P(=O)(Oc1ccccc1)Oc1ccccc1)OCc1ccccc1 (stereo not drawn) | 9.86
17 | Cc1[nH]n(-c2cccc(Cl)c2)c(=O)c1C=NC12CN3CN(CN(C3)C1)C2 | -19
18 | O=C(CCC1CCCN(C(=O)c2ccc(F)c(F)c2)C1)N1CCN(c2ccccn2)CC1 (stereo not drawn) | -6.26
19 | Cn1c(CNC(=O)C(C)(C)C)nc2ccccc21 | -4.96

Row | SMILES | hERG current change (%, negative = inhibition) at 10uM [%]
20 | Cc1cc(N/N=C\c2ccccc2)nc(-c2ccccc2O)n1 | 4.95
21 | CCN(CC)c1ccc2c(C)c(CN3CCOCC3)c(=O)oc2c1 | -11.1
22 | Cn1nc(C(=O)N2CCN(C(c3ccccc3)c3ccccc3)CC2)c2ccccc2c1=O | -35.2
23 | COc1ccc(S(=O)(=O)CC(=O)c2cc3cc(Br)ccc3oc2=O)cc1 | 0.2
24 | O=C(NCCCN1CCCCC1)c1ccc2c(=O)n(CCc3ccccc3)c(=O)[nH]c2c1 | -23.4
25 | O=C(NCCCN1CCCC1=O)c1cccc(NS(=O)(=O)c2ccc(Br)cc2)c1 | -30.1
26 | COc1cc2c(cc1OC)C1=C(C#N)CCC(=NC(=O)c3ccco3)N1CC2 | 8.96
27 | COc1cccc(C(=O)NCC(=O)N/N=C/c2cccc(OC(=O)c3ccc([N+](=O)[O-])cc3)c2)c1 | -10.4
28 | CCOC(=O)C1CCN(S(=O)(=O)c2ccc(NC(C)=O)c(Cl)c2)CC1 | -30.4
29 | COc1cc2c(C(=O)NCc3ccccn3)cn(C)c(=O)c2cc1OC | 15.2
30 | CC(C)(C)NS(=O)(=O)c1ccc(OCC(=O)NCC2CCCO2)cc1 (stereo not drawn) | 2.21
31 | Cc1ccc(S(=O)(=O)N2c3ccccc3OCC2c2ccccc2)cc1 (stereo not drawn) | 23
32 | CC(=O)N1CCCC(C(=O)c2ccc3c4c(cccc24)CC3)C1 (stereo not drawn) | -8.18
33 | Cc1ccc(OCC(=O)Nc2ccccc2N2CCOCC2)c(C)c1 | -3.56
34 | CS(=O)(=O)N(CC(=O)NC1CC1)c1cccc(F)c1 | 8.92
35 | COCCNC(=O)C(C)N1c2cccc3cccc(c23)S1(=O)=O (stereo not drawn) | 11.7
36 | NC(=O)c1ccc(NC(=O)Cc2cccs2)cc1 | 15.1
37 | COC(=O)C(C)Sc1ccc2nnc(-c3cccc(F)c3)n2n1 (stereo not drawn) | -58
38 | CN(C(=O)c1cccc(C(=O)N(C)c2ccccc2)c1)c1ccccc1 | 12.9

Row | SMILES | hERG current change (%, negative = inhibition) at 10uM [%]
39 | COc1ccc(NCCNc2ccc(OC)cc2)cc1 | -5.95
40 | O=C(O)c1ccc(OCC(O)Cn2c3ccccc3c3ccccc32)cc1 (stereo not drawn) | -18.5
41 | CCOC(=O)c1cc2occc2n1CCCN1C(=O)c2ccccc2C1=O | -23.5
42 | CC(Oc1ccc(Cl)cc1Cl)C(=O)Nc1ccc(OCC(=O)O)cc1 (stereo not drawn) | 34.2
43 | CN1CCN(C(=O)CCc2nnc3ccc(N4CCC5(CC4)OCCO5)nn23)CC1 | 19.4
44 | O=C1CC(NCc2ccc(F)cc2)C(=O)N1c1ccccc1 (stereo not drawn) | 4.39
45 | COc1cccc(-n2ccnc2SCC(=O)Nc2cc(C)on2)c1 | 14.1
46 | O=C(Cc1c(O)c2ccccc2[nH]c1=O)NCc1ccc(F)cc1 | 12.3
47 | CC(C)C(=O)Nc1nnc(SCc2cccc(F)c2)s1 | -8.88
48 | O=C(CN1CCCc2ccccc21)N/N=C/c1ccc(O)cc1O | -29.1
49 | Cl.N=C(c1cccc([N+](=O)[O-])c1)N1CCCCC1 | 1.62
50 | Cc1ccc(-c2nc(S(=O)(=O)c3ccc(F)cc3)c(SCC(=O)NCC3CCCO3)o2)cc1 (stereo not drawn) | 6.95
51 | CCOC(=O)N1CCN(C(=O)c2ccc(Cn3c(=S)[nH]c4ccc(Br)cc4c3=O)cc2)CC1 | 13.3
52 | CSCCC(NC(=O)COc1ccccc1)C(=O)N1CCOCC1 (stereo not drawn) | -9.88
53 | CC(C)Oc1c(Br)cc(Br)cc1/C=N/NC(N)=S | 13.1
54 | CCCCn1nc(C(=O)Oc2ccc3c(C)cc(=O)oc3c2)c2ccccc2c1=O | -21.4
55 | O=C(NCCCn1ccnc1)C(Cl)(Cl)Cl | -0.517
56 | O=C(CN(C(=O)CCC(=O)Nc1nccs1)c1cccc(F)c1)NCC1CCCO1 (stereo not drawn) | -1.21
57 | COc1ccc(NC(=O)c2ccc(NC(=O)COC(=O)c3cnc(C)cn3)cc2)cc1 | -2.52
